# Laboratory results: publication doi:10.1101/2023.01.10.523378 (bioRxiv, 2023)
# B1: rat CaMKIIα T305A/T306V holoenzyme phosphorylated at Thr286 (enzyme)
# chain: not shown
# modifications: phosphothreonine at 286 (pT286)
# Target: the molecule itself
# Assay: high-speed atomic force microscopy
protein,measurement,value
B1,binding result,binds
